Measurements: the supplement of paper PMC8728848
The list shows a part of the results.

Experiments:
Test in all cases: glycan array binding signal (z-score within array); higher = stronger binding
Details in all cases: glycan notation: IUPAC condensed, linker removed
Gal6S(b1-3)GlcNAc6S = target: Gal6S(b1-3)GlcNAc6S
Method in brief: (§1)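 From the Consortium for Functional Glycomics database, 3228 arrays were curated, keeping only those whose protein sequence was available. Binding is given as a within-array Z-score averaged across arrays sharing a protein sequence and across linkers. Negative Z-scores can be read as non-binding.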

Gal6S(b1-4)Glc = target: Gal6S(b1-4)Glc
Method in brief: as §1

Gal6S(b1-4)Glc6S = target: Gal6S(b1-4)Glc6S
Method in brief: as §1

Gal6S(b1-4)GlcNAc = target: Gal6S(b1-4)GlcNAc
Method in brief: as §1

Gal6S(b1-4)GlcNAc6S = target: Gal6S(b1-4)GlcNAc6S
Method in brief: as §1

GalNAc(a1-3)Gal = target: GalNAc(a1-3)Gal
Method in brief: as §1

GalNAc(a1-3)GalNAc = target: GalNAc(a1-3)GalNAc
Method in brief: as §1

[1] = target: GalNAc(a1-3)GalNAc(b1-3)Gal(a1-4)Gal(b1-4)Glc
Method in brief: as §1

[2] = target: GalNAc(a1-3)GalNAc(b1-3)Gal(a1-4)Gal(b1-4)GlcNAc
Method in brief: as §1

GalNAc(b1-3)Gal = target: GalNAc(b1-3)Gal
Method in brief: as §1

[3] = target: GalNAc(b1-3)Gal(a1-4)Gal(b1-4)GlcNAc
Method in brief: as §1

[4] = target: GalNAc(b1-3)Gal(a1-4)Gal(b1-4)GlcNAc(b1-3)Gal(b1-4)Glc
Method in brief: as §1

[5] = target: GalNAc(b1-3)Gal(a1-6)Gal(b1-4)Glc
Method in brief: as §1

GalNAc(b1-3)GalNAc = target: GalNAc(b1-3)GalNAc
Method in brief: as §1

GalNAc(b1-3)GlcNAc = target: GalNAc(b1-3)GlcNAc
Method in brief: as §1

GalNAc(b1-4)Gal(b1-4)Glc = target: GalNAc(b1-4)Gal(b1-4)Glc
Method in brief: as §1

GalNAc(b1-4)GlcNAc = target: GalNAc(b1-4)GlcNAc
Method in brief: as §1

[6] = target: GalNAc(b1-4)GlcNAc(b1-2)Man
Method in brief: as §1

[7] = target: GalNAc(b1-4)GlcNAc(b1-2)Man(a1-3)[GalNAc(b1-4)GlcNAc(b1-2)Man(a1-6)]Man(b1-4)GlcNAc(b1-4)GlcNAc
Method in brief: as §1

[8] = target: GalNAc(b1-4)GlcNAc(b1-3)GalNAc(b1-4)GlcNAc
Method in brief: as §1

GalNAc(b1-4)GlcNAc6S = target: GalNAc(b1-4)GlcNAc6S
Method in brief: as §1

GalNAc(b1-6)GalNAc = target: GalNAc(b1-6)GalNAc
Method in brief: as §1

GalNAc3S(b1-4)GlcNAc = target: GalNAc3S(b1-4)GlcNAc
Method in brief: as §1

GalNAc3S(b1-4)GlcNAc3S = target: GalNAc3S(b1-4)GlcNAc3S
Method in brief: as §1

[9] = target: GalNAc3S(b1-4)[Fuc(a1-3)]GlcNAc
Method in brief: as §1

GalNAc4S6S(b1-4)GlcNAc = target: GalNAc4S6S(b1-4)GlcNAc
Method in brief: as §1

GalNAc6S(b1-4)GlcNAc = target: GalNAc6S(b1-4)GlcNAc
Method in brief: as §1

Glc(a1-4)Glc = target: Glc(a1-4)Glc
Method in brief: as §1

[10] = target: Glc(a1-4)Glc(a1-4)Glc(a1-4)Glc
Method in brief: as §1

Glc(a1-6)Glc(a1-6)Glc = target: Glc(a1-6)Glc(a1-6)Glc
Method in brief: as §1

[11] = target: Glc(a1-6)Glc(a1-6)Glc(a1-6)Glc
Method in brief: as §1

Glc(b1-4)Glc = target: Glc(b1-4)Glc
Method in brief: as §1

Glc(b1-6)Glc = target: Glc(b1-6)Glc
Method in brief: as §1

GlcA(b1-3)Gal = target: GlcA(b1-3)Gal
Method in brief: as §1

GlcA(b1-3)GlcNAc = target: GlcA(b1-3)GlcNAc
Method in brief: as §1

GlcA(b1-6)Gal = target: GlcA(b1-6)Gal
Method in brief: as §1

[12] = target: GlcA3S(b1-3)Gal(b1-4)GlcNAc(b1-2)Man
Method in brief: as §1

[13] = target: GlcA3S(b1-3)Gal(b1-4)GlcNAc(b1-3)Gal(b1-4)Glc
Method in brief: as §1

B1: Epa12 (Candida glabrata) (protein)
chain: MGSSHHHHHHSSGLVPRGSHMLEPDNSLQIFDSFLSNPSKYPLGCSPKITNPKKGLSMELYSYPYRKKGSHPCWDPAYLDPNFPRVGYKKNKLIARVDGVSGDINFNFHPKRQCTPIADYLPPNFNYNEPITTTNFTMLLYGYFKPKVTGLHTFDISADDLLFMNFGAGNAFDCCRRDSTADTFGNYVAWAIWGRRIVRNKLTVRLDKGIYYPLRLFFNNRDYYGQMRLTFKTEHGSERITDFSDYFFSVDDTSEGCPGLITYESECADVKSSTVLETDYITIQAEKE
For B1, which “glycan array binding signal (z-score)” value (Gal6S(b1-3)GlcNAc6S) is on record?
The value was 3.83.

What about the “glycan array binding signal (z-score)” value (Gal6S(b1-4)Glc) of the same binder?
The value was 2.1.

And the “glycan array binding signal (z-score)” value (Gal6S(b1-4)Glc6S)?
The value was 7.51.

And the “glycan array binding signal (z-score)” value (Gal6S(b1-4)GlcNAc)?
Its value is 1.98.

What about the “glycan array binding signal (z-score)” value (Gal6S(b1-4)GlcNAc6S) of the same binder?
The value was 8.69.

And the “glycan array binding signal (z-score)” value (GalNAc(a1-3)Gal)?
Its value is -0.327.

And the “glycan array binding signal (z-score)” value (GalNAc(a1-3)GalNAc)?
Its value is -0.336.

And the “glycan array binding signal (z-score)” value [1]?
The value was -0.26.

And the “glycan array binding signal (z-score)” value [2]?
The value was -0.359.

What about the “glycan array binding signal (z-score)” value (GalNAc(b1-3)Gal) of the same binder?
Its value is -0.291.

And the “glycan array binding signal (z-score)” value [3]?
The value was -0.149.

What about the “glycan array binding signal (z-score)” value [4] of the same binder?
The value was -0.261.

And the “glycan array binding signal (z-score)” value [5]?
Its value is -0.371.

And the “glycan array binding signal (z-score)” value (GalNAc(b1-3)GalNAc)?
The value was -0.362.

What about the “glycan array binding signal (z-score)” value (GalNAc(b1-3)GlcNAc) of the same binder?
Its value is -0.39.

And the “glycan array binding signal (z-score)” value (GalNAc(b1-4)Gal(b1-4)Glc)?
Its value is -0.008.

And the “glycan array binding signal (z-score)” value (GalNAc(b1-4)GlcNAc)?
Its value is -0.302.

And the “glycan array binding signal (z-score)” value [6]?
The value was -0.42.

What about the “glycan array binding signal (z-score)” value [7] of the same binder?
The value was -0.258.

And the “glycan array binding signal (z-score)” value [8]?
Its value is -0.349.

And the “glycan array binding signal (z-score)” value (GalNAc(b1-4)GlcNAc6S)?
The value was -0.335.

And the “glycan array binding signal (z-score)” value (GalNAc(b1-6)GalNAc)?
The value was -0.347.

What about the “glycan array binding signal (z-score)” value (GalNAc3S(b1-4)GlcNAc) of the same binder?
Its value is -0.35.

And the “glycan array binding signal (z-score)” value (GalNAc3S(b1-4)GlcNAc3S)?
The value was -0.237.

And the “glycan array binding signal (z-score)” value [9]?
Its value is -0.341.

What about the “glycan array binding signal (z-score)” value (GalNAc4S6S(b1-4)GlcNAc) of the same binder?
The value was -0.154.

What about the “glycan array binding signal (z-score)” value (GalNAc6S(b1-4)GlcNAc) of the same binder?
Its value is -0.346.

And the “glycan array binding signal (z-score)” value (Glc(a1-4)Glc)?
The value was -0.32.

What about the “glycan array binding signal (z-score)” value [10] of the same binder?
Its value is -0.195.

And the “glycan array binding signal (z-score)” value (Glc(a1-6)Glc(a1-6)Glc)?
The value was -0.332.

What about the “glycan array binding signal (z-score)” value [11] of the same binder?
Its value is -0.295.

What about the “glycan array binding signal (z-score)” value (Glc(b1-4)Glc) of the same binder?
Its value is -0.371.

What about the “glycan array binding signal (z-score)” value (Glc(b1-6)Glc) of the same binder?
Its value is -0.278.

And the “glycan array binding signal (z-score)” value (GlcA(b1-3)Gal)?
Its value is -0.149.

And the “glycan array binding signal (z-score)” value (GlcA(b1-3)GlcNAc)?
Its value is -0.388.

What about the “glycan array binding signal (z-score)” value (GlcA(b1-6)Gal) of the same binder?
The value was 1.79.

And the “glycan array binding signal (z-score)” value [12]?
The value was -0.13.

And the “glycan array binding signal (z-score)” value [13]?
Its value is -0.32.
